Measured values as given in the supplement of paper PMC8813932.
Counter-ions that a name gives are not always drawn. ± gives the standard deviation of the averaged measurements. The list shows a part of the results. Single values are uncertain, as repeats are few or missing.

system: OVCAR4; test: log2 surviving fraction relative to plate median (drug vs vehicle, or drug+dl922-947 vs dl922-947 alone); ovarian cancer lines: OVCAR4 is platinum-sensitive while Ov4Cis resists cisplatin and Ov4Carbo carboplatin; higher = more cell survival; settings: dl922-947 oncolytic adenovirus co-treatment: MOI 10; compound concentration: 10 uM; 192 h

SMILES | log2 surviving fraction
C=CC(=O)N1CCC[C@@H](n2nc(-c3ccc(Oc4ccccc4)cc3)c3c(N)ncnc32)C1 | -0.147 ± 1.4
Cn1c(=O)c2c(ncn2CC(O)CO)n(C)c1=O (stereo not drawn) [Dyphylline (Dilor)] | -0.321 ± 1
C=C1/C(=C\C=C2/CCC[C@]3(C)[C@@H]([C@H](C)/C=C/[C@H](C)C(C)C)CC[C@@H]23)C[C@@H](O)C[C@@H]1O [Doxercalciferol (Hectorol)] | 0.146 ± 0.44
O=C(O)c1cc(-c2ccccc2)nc2ccccc12 [Cinchophen] | -0.00526 ± 0.046

same assay, conditions: dl922-947 oncolytic adenovirus co-treatment: none; compound concentration: 10 uM; 192 h

SMILES | log2 surviving fraction
C[C@@H](c1ncncc1F)[C@](O)(Cn1cncn1)c1ccc(F)cc1F [Voriconazole] | 0.706 ± 0.62
C=CCOc1ccccc1OCC(O)CNC(C)C (stereo not drawn) [Oxprenolol HCl] | -1.46 ± 2.2
NC(=O)N1c2ccccc2C=Cc2ccccc21 [Carbamazepine (Carbatrol)] | -0.123 ± 0.91
CN1C2=CC(=O)/C(=N\NC(N)=O)C=C2CC1S(=O)(=O)O (stereo not drawn) [Carbazochrome sodium sulfonate] | -0.203 ± 0.13
COc1ccccc1OCC(O)CO (stereo not drawn) [Guaifenesin (Guaiphenesin)] | 0.233 ± 0.032
Cc1ccc(C(=O)Nc2ccc(CN3CCN(C)CC3)c(C(F)(F)F)c2)cc1C#Cc1cnc2cccnn12 | -11.6 ± 6.6
COc1ccc(C(=O)N2CCCC2=O)cc1 [Aniracetam] | 0.799 ± 0.56
C[C@H](Cn1cnc2c(N)ncnc21)OCP(=O)(O)O [Tenofovir (Viread)] | -0.29 ± 0.81
CN(C)CCCN1c2ccccc2CCc2ccc(Cl)cc21 [Clomipramine hydrochloride (Anafranil)] | -2.14 ± 0.33
Nc1ccc(S(=O)(=O)Nc2ccccn2)cc1 [Sulfapyridine (Dagenan)] | -0.152 ± 0.23
Oc1c(Cl)cc(Cl)c2cccnc12 [Chloroxine] | -4.69 ± 0.061
CC1(C)S[C@@H]2[C@H](NC(=O)C(C(=O)O)c3ccccc3)C(=O)N2[C@H]1C(=O)O (stereo partly drawn) [Carbenicillin disodium] | 0.199 ± 0.33
CCC(C)n1ncn(-c2ccc(N3CCN(c4ccc(OCC5COC(Cn6cncn6)(c6ccc(Cl)cc6Cl)O5)cc4)CC3)cc2)c1=O (stereo not drawn) [Itraconazole (Sporanox)] | 0.228 ± 0.19
Oc1ccc(OCc2ccccc2)cc1 [Monobenzone (Benoquin)] | -3.15 ± 0.29
C[N+](C)(C)CCO.[Cl-] [Choline Chloride] | 0.778 ± 0.02
CN1CCC(=C2c3ccccc3CCc3sccc32)CC1 [Pizotifen malate] | -0.875 ± 0.54
CO[C@H]1/C=C/O[C@@]2(C)Oc3c(C)c(O)c4c(c3C2=O)C2=NC3(CCN(CC(C)C)CC3)NC2=C(NC(=O)/C(C)=C\C=C\[C@H](C)[C@H](O)[C@@H](C)[C@@H](O)[C@@H](C)[C@H](OC(C)=O)[C@@H]1C)C4=O [Rifabutin (Mycobutin)] | -1.47 ± 0.43
C#C[C@]1(O)CC[C@H]2[C@@H]3CCc4cc(O)ccc4[C@H]3CC[C@@]21C [Ethinyl Estradiol] | -2.63 ± 0.99
C[C@@H](O[C@H]1OCCN(Cc2n[nH]c(=O)[nH]2)[C@H]1c1ccc(F)cc1)c1cc(C(F)(F)F)cc(C(F)(F)F)c1 [Aprepitant (MK-0869)] | 0.696 ± 2.9
Cc1cc(C2CCCCC2)n(O)c(=O)c1 [Ciclopirox ethanolamine] | -8.95 ± 3

SMILES | log2 surviving fraction
NC(=O)c1ncn([C@@H]2O[C@H](CO)[C@@H](O)[C@H]2O)c1N [Acadesine] | 0.417 ± 0.37
O=C(O)CCc1nc2ccccc2[nH]1 [Procodazole] | -0.318 ± 0.88
Cc1ccnc(NS(=O)(=O)c2ccc(N)cc2)n1 [Sulfamerazine] | -0.157 ± 1.1
O=C1O[C@H]([C@@H](O)CO)C([O-])=C1O.[Na+] [Sodium ascorbate] | 0.33 ± 1.1
CN1[C@@H]2CC[C@H]1C[C@@H](OC(=O)C(CO)c1ccccc1)C2 (stereo partly drawn) [Atropine] | -2.8 ± 0.93
Cc1cnc(C(=O)O)c[n+]1[O-] [Acipimox] | -0.107 ± 0.57
Cn1c(=O)c2[nH]cnc2n(C)c1=O [Aminophylline (Truphylline)] | 0.503 ± 0.47
C[N+](C)(CCOc1ccccc1)Cc1ccccc1.O=C([O-])c1cc2ccccc2cc1O [Bephenium Hydroxynaphthoate] | 0.879 ± 1.8
Nc1nnc(-c2cccc(Cl)c2Cl)c(N)n1 [Lamotrigine] | 0.0251 ± 1.2
CC(C)NCC(O)c1ccccc1Cl (stereo not drawn) [Clorprenaline HCL] | -0.649 ± 0.3
O=C(O)c1ccc(-n2nc(-c3ccccc3O)nc2-c2ccccc2O)cc1 [Deferasirox (Exjade)] | -4.59 ± 0.98
CN(N=O)C(=O)N[C@@H](C=O)[C@@H](O)[C@H](O)[C@H](O)CO [Streptozotocin (Zanosar)] | 0.857 ± 0.76
O=C1CC[C@@]2(O)[C@H]3Cc4ccc(O)c5c4[C@@]2(CCN3CC2CC2)[C@H]1O5 [Naltrexone HCl] | 0.00235 ± 0.46
CCCN1CCCC[C@H]1C(=O)Nc1c(C)cccc1C [Ropivacaine HCl] | -0.487 ± 0.64
C[C@]12CC[C@H](O)CC1=CC[C@@H]1[C@@H]2CC[C@]2(C)C(c3cccnc3)=CC[C@@H]12 [Abiraterone (CB-7598)] | -3.39 ± 5.2
C=CC(=O)N1CCC[C@@H](n2nc(-c3ccc(Oc4ccccc4)cc3)c3c(N)ncnc32)C1 | -2.01 ± 0.015
Cn1c(=O)c2c(ncn2CC(O)CO)n(C)c1=O (stereo not drawn) [Dyphylline (Dilor)] | 0.261 ± 0.032
C=C1/C(=C\C=C2/CCC[C@]3(C)[C@@H]([C@H](C)/C=C/[C@H](C)C(C)C)CC[C@@H]23)C[C@@H](O)C[C@@H]1O [Doxercalciferol (Hectorol)] | -1.95 ± 1.1
O=C(O)c1cc(-c2ccccc2)nc2ccccc12 [Cinchophen] | -0.208 ± 0.57
